Measured values taken from publication PMC5157953.
These are yes or no findings as the source states them, for the method shown. Some entries that bind do so weakly or less than the wild type. Tags and fused reporters may be left off the sequences shown.

Amino acid sequences for entries named in this document (tags omitted). Residues count along the entry.
UniProt Q9M9X4: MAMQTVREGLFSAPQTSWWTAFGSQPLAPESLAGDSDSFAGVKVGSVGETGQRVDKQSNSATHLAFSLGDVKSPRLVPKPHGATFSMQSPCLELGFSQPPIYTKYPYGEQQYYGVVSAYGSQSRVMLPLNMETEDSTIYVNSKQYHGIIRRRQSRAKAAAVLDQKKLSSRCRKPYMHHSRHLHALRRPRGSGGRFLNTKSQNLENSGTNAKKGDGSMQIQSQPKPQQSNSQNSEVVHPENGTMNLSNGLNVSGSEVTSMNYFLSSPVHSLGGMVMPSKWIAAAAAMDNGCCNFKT
UniProt Q39057: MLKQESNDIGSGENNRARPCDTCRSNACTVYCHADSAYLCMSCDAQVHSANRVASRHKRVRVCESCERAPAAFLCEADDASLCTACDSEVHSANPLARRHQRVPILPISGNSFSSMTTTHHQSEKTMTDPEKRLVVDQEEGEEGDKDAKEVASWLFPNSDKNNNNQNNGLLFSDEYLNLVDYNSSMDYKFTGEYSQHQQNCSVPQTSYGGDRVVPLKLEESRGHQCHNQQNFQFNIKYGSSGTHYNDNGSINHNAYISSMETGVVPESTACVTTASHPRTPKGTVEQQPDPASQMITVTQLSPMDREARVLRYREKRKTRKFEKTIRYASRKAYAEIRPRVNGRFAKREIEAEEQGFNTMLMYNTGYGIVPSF
UniProt Q9LVJ7, residues 170-237: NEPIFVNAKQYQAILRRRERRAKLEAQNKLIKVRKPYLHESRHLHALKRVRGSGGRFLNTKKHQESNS

T1: NF-YB2/NF-YC9 histone-fold domain dimer in yeast three-hybrid (NF-YB2 DBD fusion with NF-YC9 from a bridge vector) (Arabidopsis thaliana) (UniProt Q9FGJ3+Q8L4B2)
T1 sequence 1: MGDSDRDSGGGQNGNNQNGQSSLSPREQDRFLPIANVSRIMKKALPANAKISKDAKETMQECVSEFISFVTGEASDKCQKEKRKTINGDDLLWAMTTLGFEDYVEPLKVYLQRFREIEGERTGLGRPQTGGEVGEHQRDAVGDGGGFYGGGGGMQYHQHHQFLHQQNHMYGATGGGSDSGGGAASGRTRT
T1 sequence 2: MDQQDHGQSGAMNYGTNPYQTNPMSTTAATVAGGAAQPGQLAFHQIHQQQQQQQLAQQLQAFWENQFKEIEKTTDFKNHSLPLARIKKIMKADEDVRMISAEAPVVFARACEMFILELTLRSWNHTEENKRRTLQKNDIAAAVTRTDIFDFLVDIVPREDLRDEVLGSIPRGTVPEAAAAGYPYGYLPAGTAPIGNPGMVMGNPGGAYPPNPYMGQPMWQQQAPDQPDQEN

T2: NF-YB2^E65R/NF-YC9 dimer in yeast three-hybrid (NF-YB2^E65R fusion with NF-YC9 from a bridge vector) (Arabidopsis thaliana) (UniProt Q9FGJ3+Q8L4B2)
T2 sequence 1: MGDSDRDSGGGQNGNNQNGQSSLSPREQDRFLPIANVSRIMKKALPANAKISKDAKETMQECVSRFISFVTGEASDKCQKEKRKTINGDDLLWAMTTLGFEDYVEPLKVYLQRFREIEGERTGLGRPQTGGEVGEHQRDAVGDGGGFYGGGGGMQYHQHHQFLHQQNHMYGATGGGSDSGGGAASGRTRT
T2 sequence 2: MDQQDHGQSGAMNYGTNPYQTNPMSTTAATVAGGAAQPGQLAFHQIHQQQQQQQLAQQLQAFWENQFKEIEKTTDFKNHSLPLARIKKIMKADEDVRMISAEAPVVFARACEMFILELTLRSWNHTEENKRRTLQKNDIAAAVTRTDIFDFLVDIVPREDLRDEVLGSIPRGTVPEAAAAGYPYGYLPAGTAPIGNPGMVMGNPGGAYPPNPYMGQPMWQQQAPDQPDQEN

T3: 6His-NF-YB2/NF-YC3 soluble HFD dimer (Arabidopsis thaliana) (UniProt Q9FGJ3+Q9ZVL3)
T3 sequence 1: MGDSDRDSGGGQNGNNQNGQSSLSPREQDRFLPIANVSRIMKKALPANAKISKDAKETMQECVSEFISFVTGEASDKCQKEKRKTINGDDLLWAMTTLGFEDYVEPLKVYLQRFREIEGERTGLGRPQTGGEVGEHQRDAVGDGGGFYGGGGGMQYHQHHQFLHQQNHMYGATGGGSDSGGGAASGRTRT
T3 sequence 2: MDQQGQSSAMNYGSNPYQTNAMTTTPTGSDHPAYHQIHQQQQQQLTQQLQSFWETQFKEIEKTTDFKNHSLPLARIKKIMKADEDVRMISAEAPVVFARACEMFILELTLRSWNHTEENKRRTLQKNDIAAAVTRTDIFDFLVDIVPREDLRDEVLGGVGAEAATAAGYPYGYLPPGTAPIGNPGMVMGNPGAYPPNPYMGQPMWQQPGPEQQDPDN

T4: NUCLEAR FACTOR Y subunit B2 (NF-YB2), yeast two-hybrid fusion (Arabidopsis thaliana) (UniProt Q9FGJ3)
T4 sequence: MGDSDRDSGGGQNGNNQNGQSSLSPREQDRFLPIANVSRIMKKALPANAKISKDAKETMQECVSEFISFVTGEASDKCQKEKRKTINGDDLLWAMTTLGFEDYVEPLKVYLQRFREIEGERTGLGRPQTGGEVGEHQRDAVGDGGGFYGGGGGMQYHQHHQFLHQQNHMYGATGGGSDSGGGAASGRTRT

T5: NF-YB2^E65R, yeast two-hybrid fusion (Arabidopsis thaliana) (UniProt Q9FGJ3)
T5 sequence: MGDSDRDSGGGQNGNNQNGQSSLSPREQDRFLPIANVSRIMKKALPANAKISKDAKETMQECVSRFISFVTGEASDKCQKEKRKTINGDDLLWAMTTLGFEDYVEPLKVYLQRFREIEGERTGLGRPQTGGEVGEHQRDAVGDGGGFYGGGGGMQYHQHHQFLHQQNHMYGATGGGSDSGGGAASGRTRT

B1: NUCLEAR FACTOR Y subunit C3 (NF-YC3), yeast two-hybrid fusion (protein, UniProt Q9ZVL3 1-217)
chain: MDQQGQSSAMNYGSNPYQTNAMTTTPTGSDHPAYHQIHQQQQQQLTQQLQSFWETQFKEIEKTTDFKNHSLPLARIKKIMKADEDVRMISAEAPVVFARACEMFILELTLRSWNHTEENKRRTLQKNDIAAAVTRTDIFDFLVDIVPREDLRDEVLGGVGAEAATAAGYPYGYLPPGTAPIGNPGMVMGNPGAYPPNPYMGQPMWQQPGPEQQDPDN
B2: NUCLEAR FACTOR Y subunit C4 (NF-YC4), yeast two-hybrid fusion (protein, UniProt Q9FMV5 1-250)
chain: MDNNNNNNNQQPPPTSVYPPGSAVTTVIPPPPSGSASIVTGGGATYHHLLQQQQQQLQMFWTYQRQEIEQVNDFKNHQLPLARIKKIMKADEDVRMISAEAPILFAKACELFILELTIRSWLHAEENKRRTLQKNDIAAAITRTDIFDFLVDIVPREEIKEEEDAASALGGGGMVAPAASGVPYYYPPMGQPAVPGGMMIGRPAMDPSGVYAQPPSQAWQSVWQNSAGGGDDVSYGSGGSSGHGNLDSQG
B3: NUCLEAR FACTOR Y subunit C9 (NF-YC9), yeast two-hybrid fusion (protein, UniProt Q8L4B2 1-231)
chain: MDQQDHGQSGAMNYGTNPYQTNPMSTTAATVAGGAAQPGQLAFHQIHQQQQQQQLAQQLQAFWENQFKEIEKTTDFKNHSLPLARIKKIMKADEDVRMISAEAPVVFARACEMFILELTLRSWNHTEENKRRTLQKNDIAAAVTRTDIFDFLVDIVPREDLRDEVLGSIPRGTVPEAAAAGYPYGYLPAGTAPIGNPGMVMGNPGGAYPPNPYMGQPMWQQQAPDQPDQEN

Columns and labels:
[1] = target: T1, NF-YB2/NF-YC9 histone-fold domain dimer in yeast three-hybrid (NF-YB2 DBD fusion with NF-YC9 from a bridge vector) (Arabidopsis thaliana); assay: two-hybrid; yeast three-hybrid in PJ69-4alpha; NF-YA2 as activation domain fusion, NF-YC9 from the bridge vector pTFT1; medium lacking histidine with 5 mM 3-AT
[2] = target: T2, NF-YB2^E65R/NF-YC9 dimer in yeast three-hybrid (NF-YB2^E65R fusion with NF-YC9 from a bridge vector) (Arabidopsis thaliana); assay: as above
[3] = target: T1, NF-YB2/NF-YC9 histone-fold domain dimer in yeast three-hybrid (NF-YB2 DBD fusion with NF-YC9 from a bridge vector) (Arabidopsis thaliana); assay: two-hybrid; yeast three-hybrid as in a2 with CO in place of NF-YA2; no figure shown; read by yeast growth
[4] = target: T2, NF-YB2^E65R/NF-YC9 dimer in yeast three-hybrid (NF-YB2^E65R fusion with NF-YC9 from a bridge vector) (Arabidopsis thaliana); assay: as above
[5] = target: T3, 6His-NF-YB2/NF-YC3 soluble HFD dimer (Arabidopsis thaliana); assay: native gel or EMSA; trimer read as NF-Y/DNA complex on Cy5-labelled FT CCAAT probe (20 nM); NF-YB2/NF-YC3 dimers 60 nM, NF-YA at 3, 4.5 or 6 fold molar ratio; 12 mM Tris-HCl pH 8.0, 50 mM KCl, 62.5 mM NaCl, 5 mM MgCl2; 30 min at 30C; 6% polyacrylamide, 0.25X TBE; both purified
[6] = target: T4, NUCLEAR FACTOR Y subunit B2 (NF-YB2), yeast two-hybrid fusion (Arabidopsis thaliana); assay: two-hybrid; yeast two-hybrid in MaV203, ProQuest system; X-Gal assay and medium lacking histidine with 5 mM 3-AT
[7] = target: T5, NF-YB2^E65R, yeast two-hybrid fusion (Arabidopsis thaliana); assay: as above

Row | binding [6] | binding [7] | also measured | Molecule
1 |  |  | binding [1]: binds; binding [2]: no binding | NUCLEAR FACTOR Y subunit A2 (NF-YA2), activation domain fusion for yeast three-hybrid (from UniProt Q9M9X4 1-295)
2 |  |  | binding [3]: no binding; binding [4]: no binding | CONSTANS (CO), yeast three-hybrid fusion (from UniProt Q39057 1-373)
3 |  |  | binding [5]: binds | NF-YA6 (aa 170-237) with C-terminal 6His tag (from UniProt Q9LVJ7 170-237) (domain or fragment)
4 | binds | binds |  | B1
5 | binds | binds |  | B2
6 | binds | binds |  | B3
